According to a collection of fitness landscapes (doi:10.1126/science.1257360):
The list shows a part of the results.

B1: PhoQ; a variant is named by its letters at X, in order, P23837 (parent)
chain: MKKLLRLFFPLSLRVRFLLATAAVVLVLSLAYGMVALIGYSVSFDKTTFRLLRGESNLFYTLAKWENNKLHVELPENIDKQSPTMTLIYDENGQLLWAQRDVPWLMKMIQPDWLKSNGFHEIEADVNDTSLLLSGDHSIQQQLQEVREDDDDAEMTHSVAVNVYPATSRMPKLTIVVVDTIPVELKSSYMVWSWFIYVLSANLLLVIPLLWVAAWWSLRPIEALAKEVRELEEHNRELLNPATTRELTSLVRNLNRLLKSERERYDKYRTTLTDLTHSLKTPLXXLQXXLRSLRSEKMSVSDAEPVMLEQISRISQQIGYYLHRASMRGGTLLSRELHPVAPLLDNLTSALNKVYQRKGVNISLDISPEISFVGEQNDFVEVMGNVLDNACKYCLEFVEISARQTDEHLYIVVEDDGPGIPLSKREVIFDRGQRVDTLRPGQGVGLAVAREITEQYEGKIVAGESMLGGARMEVIFGRQHSAPKDE

Variants of: B1
Test: enrichment ratio after two sorts for PhoP signalling (ratio (wild type AVST 3.29)); higher = more functional
Conditions: with PhoP (E. coli)

Q: For TFDT, which enrichment ratio is on record?
A: Its enrichment ratio is at most 0.25.

Q: For ENYQ, which enrichment ratio is on record?
A: Its enrichment ratio is at most 0.25.

Q: For WCSR, which enrichment ratio is on record?
A: The enrichment ratio was at most 0.25.

Q: How did the enrichment ratio turn out when GCAL was run?
A: Its enrichment ratio is 3.04.

Q: For HRAR, which enrichment ratio is on record?
A: Its enrichment ratio is at most 0.25.

Q: Which enrichment ratio does the source give for LVSS here?
A: The enrichment ratio was at most 0.25.

Q: With TRLM as the variant, how does the enrichment ratio read?
A: Its enrichment ratio is 10.9.

Q: How did the enrichment ratio turn out when VDDA was run?
A: The enrichment ratio was at most 0.25.

Q: For FVNM, which enrichment ratio is on record?
A: The enrichment ratio was at most 0.25.

Q: Which enrichment ratio does the source give for HSFE here?
A: The enrichment ratio was at most 0.25.

Q: How did the enrichment ratio turn out when HPRF was run?
A: Its enrichment ratio is at most 0.25.

Q: Which enrichment ratio does the source give for GLAC here?
A: The enrichment ratio was at most 0.25.

Q: How did the enrichment ratio turn out when KRSD was run?
A: Its enrichment ratio is at most 0.25.

Q: Which enrichment ratio does the source give for SVST here?
A: The enrichment ratio was 7.46.

Q: How did the enrichment ratio turn out when PSED was run?
A: Its enrichment ratio is at most 0.25.

Q: With SNSD as the variant, how does the enrichment ratio read?
A: Its enrichment ratio is at most 0.25.

Q: Which enrichment ratio does the source give for KATW here?
A: The enrichment ratio was at most 0.25.

Q: Which enrichment ratio does the source give for KDMT here?
A: The enrichment ratio was at most 0.25.

Q: Which enrichment ratio does the source give for ERDI here?
A: The enrichment ratio was at most 0.25.

Q: Which enrichment ratio does the source give for CFNL here?
A: Its enrichment ratio is at most 0.25.

Q: For RARM, which enrichment ratio is on record?
A: Its enrichment ratio is at most 0.25.

Q: With LADH as the variant, how does the enrichment ratio read?
A: The enrichment ratio was at most 0.25.

Q: With TQGQ as the variant, how does the enrichment ratio read?
A: The enrichment ratio was 28.

Q: KCKL was tested. Which enrichment ratio did it give?
A: Its enrichment ratio is at most 0.25.

Q: With LKFM as the variant, how does the enrichment ratio read?
A: Its enrichment ratio is at most 0.25.

Q: Which enrichment ratio does the source give for MSIV here?
A: Its enrichment ratio is 7.95.

Q: How did the enrichment ratio turn out when HWVQ was run?
A: The enrichment ratio was at most 0.25.

Q: With ARRY as the variant, how does the enrichment ratio read?
A: Its enrichment ratio is at most 0.25.

Q: Which enrichment ratio does the source give for AWSD here?
A: The enrichment ratio was at most 0.25.

Q: Which enrichment ratio does the source give for VFST here?
A: The enrichment ratio was at most 0.25.

Q: Which enrichment ratio does the source give for GMMG here?
A: The enrichment ratio was 1.1.

Q: How did the enrichment ratio turn out when RQAK was run?
A: Its enrichment ratio is at most 0.25.

Q: With GYMH as the variant, how does the enrichment ratio read?
A: The enrichment ratio was at most 0.25.

Q: How did the enrichment ratio turn out when FMQG was run?
A: The enrichment ratio was at most 0.25.

Q: How did the enrichment ratio turn out when HNQW was run?
A: The enrichment ratio was at most 0.25.

Q: How did the enrichment ratio turn out when ECHS was run?
A: Its enrichment ratio is at most 0.25.

Q: With NCWY as the variant, how does the enrichment ratio read?
A: The enrichment ratio was at most 0.25.

Q: Which enrichment ratio does the source give for IECA here?
A: The enrichment ratio was at most 0.25.

Q: For NDGW, which enrichment ratio is on record?
A: Its enrichment ratio is at most 0.25.

Q: How did the enrichment ratio turn out when LTME was run?
A: Its enrichment ratio is at most 0.25.

Q: How did the enrichment ratio turn out when YRCF was run?
A: The enrichment ratio was at most 0.25.

Q: Which enrichment ratio does the source give for GYCD here?
A: Its enrichment ratio is at most 0.25.

Q: How did the enrichment ratio turn out when RCDY was run?
A: The enrichment ratio was at most 0.25.

Q: For RFQM, which enrichment ratio is on record?
A: Its enrichment ratio is at most 0.25.

Q: With NWPS as the variant, how does the enrichment ratio read?
A: The enrichment ratio was at most 0.25.

Q: For YINW, which enrichment ratio is on record?
A: Its enrichment ratio is at most 0.25.

Q: Which enrichment ratio does the source give for ANPS here?
A: The enrichment ratio was at most 0.25.

Q: MFSM was tested. Which enrichment ratio did it give?
A: Its enrichment ratio is at most 0.25.

Q: With YDTK as the variant, how does the enrichment ratio read?
A: The enrichment ratio was at most 0.25.

Q: With PRLE as the variant, how does the enrichment ratio read?
A: The enrichment ratio was at most 0.25.

Q: Which enrichment ratio does the source give for DHGM here?
A: The enrichment ratio was at most 0.25.

Q: Which enrichment ratio does the source give for HDYW here?
A: Its enrichment ratio is at most 0.25.

Q: With PTLM as the variant, how does the enrichment ratio read?
A: The enrichment ratio was at most 0.25.

Q: For FFMR, which enrichment ratio is on record?
A: The enrichment ratio was at most 0.25.

Q: How did the enrichment ratio turn out when KIWT was run?
A: Its enrichment ratio is at most 0.25.

Q: KDMD was tested. Which enrichment ratio did it give?
A: The enrichment ratio was 0.523.

Q: How did the enrichment ratio turn out when QVNM was run?
A: The enrichment ratio was at most 0.25.

Q: SISM was tested. Which enrichment ratio did it give?
A: The enrichment ratio was 16.

Q: How did the enrichment ratio turn out when TFIH was run?
A: The enrichment ratio was at most 0.25.

Q: For SLKM, which enrichment ratio is on record?
A: The enrichment ratio was at most 0.25.

Q: DSTF was tested. Which enrichment ratio did it give?
A: Its enrichment ratio is at most 0.25.

Q: Which enrichment ratio does the source give for LVFE here?
A: Its enrichment ratio is at most 0.25.

Q: How did the enrichment ratio turn out when ADAG was run?
A: The enrichment ratio was at most 0.25.

Q: Which enrichment ratio does the source give for YLWQ here?
A: The enrichment ratio was at most 0.25.

Q: For IEKN, which enrichment ratio is on record?
A: The enrichment ratio was at most 0.25.

Q: DQMN was tested. Which enrichment ratio did it give?
A: Its enrichment ratio is at most 0.25.

Q: How did the enrichment ratio turn out when ELRD was run?
A: Its enrichment ratio is at most 0.25.

Q: YNHI was tested. Which enrichment ratio did it give?
A: The enrichment ratio was at most 0.25.

Q: How did the enrichment ratio turn out when MPAN was run?
A: Its enrichment ratio is at most 0.25.

Q: For KVQG, which enrichment ratio is on record?
A: Its enrichment ratio is at most 0.25.

Q: For HKQS, which enrichment ratio is on record?
A: The enrichment ratio was at most 0.25.

Q: How did the enrichment ratio turn out when KPTW was run?
A: The enrichment ratio was at most 0.25.

Q: AGAF was tested. Which enrichment ratio did it give?
A: The enrichment ratio was 3.66.

Q: YKQV was tested. Which enrichment ratio did it give?
A: Its enrichment ratio is at most 0.25.

Q: LCAI was tested. Which enrichment ratio did it give?
A: Its enrichment ratio is at most 0.25.

Q: WHGL was tested. Which enrichment ratio did it give?
A: The enrichment ratio was at most 0.25.

Q: With AVME as the variant, how does the enrichment ratio read?
A: The enrichment ratio was at most 0.25.

Q: QDFM was tested. Which enrichment ratio did it give?
A: Its enrichment ratio is at most 0.25.

Q: With YESI as the variant, how does the enrichment ratio read?
A: Its enrichment ratio is at most 0.25.

Q: For VCFK, which enrichment ratio is on record?
A: Its enrichment ratio is at most 0.25.

Q: For YDNW, which enrichment ratio is on record?
A: The enrichment ratio was at most 0.25.

Q: Which enrichment ratio does the source give for KLTA here?
A: The enrichment ratio was at most 0.25.

Q: How did the enrichment ratio turn out when VWHM was run?
A: The enrichment ratio was at most 0.25.

Q: KIDP was tested. Which enrichment ratio did it give?
A: Its enrichment ratio is at most 0.25.
